According to patent US12098186 (NATIONAL TECHNOLOGY AND ENGINEERING SOLUTIONS OF SANDIA, dated 2024):
Like-named read-outs stand apart in the source and are kept apart here.

B1: SP1B4 monotopic nanobody construct (SP1B4 nanobody on human IgG1 Fc, Nb-huFc) (Fc fusion)
chain: EVQLQASGGGFVQPGGSLRLSCAASGRAFGIYRMGWFRQAPGKEREFVSAISGGDAGHTRYADSVKGRFTISRDNSKNTVYLQMNSLRAEDTATYYCAYWDYNGVVPFFKYWGQGTQVTVSS[sequence of human IgG1 Fc omitted]
B2: SP1D9 monotopic nanobody construct (SP1D9 nanobody on human IgG1 Fc, Nb-huFc) (Fc fusion)
chain: EVQLQASGGGFVQPGGSLRLSCAASGRYDSYVRMGWFRQAPGKEREFVSAISGGGDKSTWYADSVKGRFTISRDNSKNTVYLQMNSLRAEDTATYYCANAQLGPAYDKIGYWGQGTQVTVSS[sequence of human IgG1 Fc omitted]

Legend:
[1] = target: T1, SARS-CoV-2 receptor-binding domain (RBD) of the spike protein (SARS-CoV-2)
[2] = target: T1, SARS-CoV-2 receptor-binding domain …; remark: listed apart in the source

Binder | Kd [1] [nM] | Kd [2] [nM]
B1 | 39.5 | –
B2 | – | 8.9
